# Measured values from PubChem BioAssay (Tox21).
# Where “and” joins values, the source holds several entries; their conditions need not be identical. Identical values can stand only once. Inconclusive results, whose numbers are uncertain, are shown with a selection of clear calls. Potencies of inconclusive entries are doubtful fits and often do not repeat. Calls of active or inactive are those of the source. Unless noted, calls come from the whole dose curve; as a rule, active = well fitted curve in the direction sought with a large enough effect in the repeat runs; inconclusive = weak or mixed curves; inactive = no such curve, though single readings can be large; an effect the other way counts as inactive or inconclusive.
# Assays:
# [1] = molecular target: Estrogen receptor beta (Homo sapiens) (UniProt Q92731); experiment: qHTS assay to identify small molecule antagonists of the estrogen receptor beta (ER-beta) signaling pathway (AID 1259378; active = well fitted inhibition curve with a large enough effect in the signal ratio in the repeat runs, not every such curve was filed as active; inconclusive = weak or mixed curves, or effect the other way; inactive = no such curve, though single readings can be large or run the other way; the % refers to the signal ratio; for activity, negative = inhibition: % is set by controls: 0 for no effect and ±100 for the full control effect); details: ER-beta-UAS-bla HEK293T, beta-lactamase FRET ratio, 16 h; activity, negative = inhibition: at 92.4 µM (top of the series) unless noted
# UniProt Q92731, sequence (Q92731 whole entry, looked up): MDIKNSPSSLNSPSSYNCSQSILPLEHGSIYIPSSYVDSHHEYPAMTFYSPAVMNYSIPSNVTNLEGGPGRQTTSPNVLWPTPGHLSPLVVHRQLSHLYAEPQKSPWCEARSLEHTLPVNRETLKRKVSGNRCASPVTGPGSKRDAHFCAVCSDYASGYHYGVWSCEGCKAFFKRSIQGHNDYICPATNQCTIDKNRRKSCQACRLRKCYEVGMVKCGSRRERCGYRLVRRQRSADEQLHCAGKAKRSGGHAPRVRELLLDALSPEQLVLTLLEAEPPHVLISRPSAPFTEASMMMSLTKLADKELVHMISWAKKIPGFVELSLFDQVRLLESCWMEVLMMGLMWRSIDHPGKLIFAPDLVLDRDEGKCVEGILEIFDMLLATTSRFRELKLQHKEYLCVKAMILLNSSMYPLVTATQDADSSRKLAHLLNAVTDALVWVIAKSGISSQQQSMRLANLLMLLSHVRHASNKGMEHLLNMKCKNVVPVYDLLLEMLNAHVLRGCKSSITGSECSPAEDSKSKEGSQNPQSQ
# In short: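 Antagonist mode: compounds added to beta-lactamase reporter HEK293T ER-beta-UAS cells stimulated with E2 (1nM final), 16 hr at 37C. LiveBLAzer B/G FRET substrate, 2 hours room temperature, fluorescence read-out.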
# [2] = qHTS assay to identify small molecule agonists of the estrogen receptor beta (ER-beta) signaling pathway - cell viability counter screen (AID 1259380); note: nearly all actives have a fitted effect of over 30% in size
# In short: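 Cell viability counter screen: CellTiter-Glo luminescence (30 min, room temperature) measured in the same wells as the beta-lactamase readout, after 16 hr compound exposure at 37C of ER-beta-bla HEK293T cells in 2% charcoal-stripped FBS medium.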
# [3] = molecular target: Estrogen receptor (Homo sapiens) (UniProt P03372); experiment: qHTS assay to identify small molecule agonists of the estrogen receptor alpha (ER-alpha) signaling pathway in the presence of an antagonist (AID 1259383; calls by dose curve; note: nearly all actives have a fitted effect of over 15% in size)
# UniProt P03372, sequence (P03372 whole entry, looked up): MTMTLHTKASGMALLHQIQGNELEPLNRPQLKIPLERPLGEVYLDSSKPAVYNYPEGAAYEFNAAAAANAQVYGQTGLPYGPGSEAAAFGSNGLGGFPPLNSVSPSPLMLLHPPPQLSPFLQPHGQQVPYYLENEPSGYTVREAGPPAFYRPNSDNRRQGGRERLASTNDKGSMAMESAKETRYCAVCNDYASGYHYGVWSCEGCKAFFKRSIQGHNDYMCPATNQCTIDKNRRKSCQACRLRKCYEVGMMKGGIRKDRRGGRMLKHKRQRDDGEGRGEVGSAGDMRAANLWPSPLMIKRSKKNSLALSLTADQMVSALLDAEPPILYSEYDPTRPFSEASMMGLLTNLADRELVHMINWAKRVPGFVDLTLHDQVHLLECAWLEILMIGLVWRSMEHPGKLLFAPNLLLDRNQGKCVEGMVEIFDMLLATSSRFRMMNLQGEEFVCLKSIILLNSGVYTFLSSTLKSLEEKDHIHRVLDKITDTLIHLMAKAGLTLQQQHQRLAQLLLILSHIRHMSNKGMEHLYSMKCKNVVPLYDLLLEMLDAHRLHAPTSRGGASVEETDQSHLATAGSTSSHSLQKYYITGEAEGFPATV
# In short: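 Agonist-mode confirmation run in the presence of 10.0nM (final) ICI-182,780 antagonist. The reporter was ERE-driven luciferase in VM7Luc4E2 cells, grown in charcoal-stripped serum. Cells were exposed to 15-concentration compound series for 22hr, then ONE-Glo luminescence was read.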
# [4] = qHTS assay to identify small molecule agonists of the estrogen receptor alpha (ER-alpha) signaling pathway in the presence of an antagonist - cell viability counter screen (AID 1259386); note: nearly all actives have a fitted effect of over 30% in size
# In short: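 Compounds tested at 15 concentrations for 22 h at 37C alongside 10.0nM (final) ICI-182,780 antagonist, in VM7Luc4E2 cells grown in phenol red-free, charcoal-stripped medium. Viability read by CellTiter-Fluor fluorescence after 1 h reagent incubation.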
# [5] = molecular target: Thyrotropin receptor (Homo sapiens) (UniProt P16473); experiment: qHTS assay to identify small molecule antagonists of the thyroid stimulating hormone receptor (TSHR) signaling pathway (AID 1259385; calls by dose curve; note: nearly all actives have a fitted effect of over 20% in size; for activity change, negative = inhibition: % is set by controls: 0 for no effect and ±100 for the full control effect); details: TSHR-HEK293 cAMP HTRF, TSH-stimulated antagonist mode; activity change, negative = inhibition: at 92.4 µM (top of the series) unless noted
# UniProt P16473, sequence (P16473 whole entry, looked up): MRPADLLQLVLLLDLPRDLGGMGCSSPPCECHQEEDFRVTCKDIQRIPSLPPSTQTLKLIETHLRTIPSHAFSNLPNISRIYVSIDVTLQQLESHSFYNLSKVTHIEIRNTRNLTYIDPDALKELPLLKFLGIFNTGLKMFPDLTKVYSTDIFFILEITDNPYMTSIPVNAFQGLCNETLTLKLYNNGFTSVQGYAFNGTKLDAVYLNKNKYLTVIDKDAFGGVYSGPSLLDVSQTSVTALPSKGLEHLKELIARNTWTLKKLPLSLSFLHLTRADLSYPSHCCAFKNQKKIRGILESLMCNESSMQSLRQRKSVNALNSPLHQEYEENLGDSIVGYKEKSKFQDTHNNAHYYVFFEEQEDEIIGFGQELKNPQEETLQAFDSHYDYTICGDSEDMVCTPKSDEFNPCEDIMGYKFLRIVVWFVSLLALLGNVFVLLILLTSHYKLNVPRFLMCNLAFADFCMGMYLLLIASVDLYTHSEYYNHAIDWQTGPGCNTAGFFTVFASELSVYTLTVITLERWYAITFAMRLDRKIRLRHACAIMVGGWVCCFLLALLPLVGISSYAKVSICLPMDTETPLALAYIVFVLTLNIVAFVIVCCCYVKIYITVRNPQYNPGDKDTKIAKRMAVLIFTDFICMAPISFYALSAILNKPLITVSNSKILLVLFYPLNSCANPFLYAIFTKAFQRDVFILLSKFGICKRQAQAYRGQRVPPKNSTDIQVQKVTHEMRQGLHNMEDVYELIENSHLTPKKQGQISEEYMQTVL
# In short: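 Antagonist mode: compound-treated TSHR-expressing HEK293 cells were stimulated with 1.5 ng/mL TSH (final) in presence of Ro20-1724 for 30 min at RT. HTRF cAMP detection after 1 h; each compound tested at 15 concentrations, triplicate.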
# [6] = molecular target: Progesterone receptor (Homo sapiens) (UniProt P06401); experiment: qHTS assay to identify small molecule agonists of the progesterone receptor (PR) signaling pathway (AID 1346784; calls by dose curve; note: nearly all actives have a fitted effect of over 30% in size; for activation: % is set by controls: 0 for no effect and ±100 for the full control effect); details: PR-UAS-bla HEK293T, beta-lactamase FRET ratio, 16 h; activation: at 92.4 µM (top of the series) unless noted
# UniProt P06401, sequence (P06401 whole entry, looked up): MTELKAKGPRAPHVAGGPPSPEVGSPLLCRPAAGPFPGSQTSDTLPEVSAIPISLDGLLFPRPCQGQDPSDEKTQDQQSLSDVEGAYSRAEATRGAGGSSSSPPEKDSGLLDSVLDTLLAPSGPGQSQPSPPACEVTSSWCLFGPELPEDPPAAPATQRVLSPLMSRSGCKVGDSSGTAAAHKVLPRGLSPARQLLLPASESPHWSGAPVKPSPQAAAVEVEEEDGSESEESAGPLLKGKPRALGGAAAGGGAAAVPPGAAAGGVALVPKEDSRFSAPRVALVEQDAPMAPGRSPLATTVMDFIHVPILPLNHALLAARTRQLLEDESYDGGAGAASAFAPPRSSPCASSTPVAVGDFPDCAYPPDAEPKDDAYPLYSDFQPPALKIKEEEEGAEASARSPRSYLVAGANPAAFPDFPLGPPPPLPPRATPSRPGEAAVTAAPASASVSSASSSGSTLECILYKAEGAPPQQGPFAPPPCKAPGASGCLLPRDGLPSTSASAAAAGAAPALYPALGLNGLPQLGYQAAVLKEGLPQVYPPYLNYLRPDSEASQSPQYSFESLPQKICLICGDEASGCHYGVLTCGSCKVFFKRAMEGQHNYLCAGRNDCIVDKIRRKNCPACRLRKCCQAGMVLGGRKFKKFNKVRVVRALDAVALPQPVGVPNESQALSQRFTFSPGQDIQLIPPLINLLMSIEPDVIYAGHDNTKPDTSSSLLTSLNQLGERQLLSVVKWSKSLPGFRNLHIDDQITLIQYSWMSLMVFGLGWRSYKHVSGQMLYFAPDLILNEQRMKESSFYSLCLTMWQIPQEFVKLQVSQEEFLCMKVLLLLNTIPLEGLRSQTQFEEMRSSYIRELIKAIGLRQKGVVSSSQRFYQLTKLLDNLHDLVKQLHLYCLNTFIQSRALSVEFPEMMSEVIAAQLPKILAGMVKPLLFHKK
# In short: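 Agonist qHTS: compounds pinned onto 3,000 PR-UAS-bla HEK 293T cells per well in charcoal-stripped serum medium, 16hr at 37C, then beta-lactamase activity measured by LiveBLAzer FRET fluorescence after 2 hours at room temperature.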
# [7] = qHTS assay to identify small molecule antagonists of the estrogen receptor beta (ER-beta) signaling pathway - cell viability counter screen (AID 1259382); note: nearly all actives have a fitted effect of over 55% in size
# In short: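 Cytotoxicity was measured in the same wells by CellTiter-Glo luminescence after 30 min at room temperature. Cells were ER-beta-bla HEK293T in charcoal-stripped serum, given compound together with 1 nM E2 and incubated 16 h at 37C.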
# [8] = qHTS assay to identify small molecule agonists or antagonists of the thyroid stimulating hormone receptor (TSHR) signaling pathway - wild type cell line counter screen (AID 1259384; calls by dose curve; for cAMP activity change: % is set by controls: 0 for no effect and ±100 for the full control effect); details: HEK293 wild type, cAMP HTRF counter-screen; cAMP activity change: at 92.4 µM (top of the series), active compounds read high unless noted
# In short: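 Counter screen in untransfected Hek293: compounds (15-point titration, triplicate) plus phosphodiesterase inhibitor Ro20-1724 added after 18 h plating; 30 min RT. Intracellular cAMP via competitive d2/cryptate immunoassay, 1 h incubation.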
# Potency is the fitted concentration of half-maximal effect; tags give direction and shape of the fitted curve or compound fluorescence and quenching.
structure (smiles),measurement,setting,value
O=C1c2ccccc2C(=O)C1c1ccc2ccccc2n1,"activity, negative = inhibition",[1],inconclusive: 7% [at 42.5 µM]
same,Potency,[2],inactive
same,Potency,[3],"inconclusive: 3.82 µM [activator, partial curve]"
same,Potency,[4],"inconclusive: 27 µM [cytotoxic, partial curve]"
NC(=O)NC(N)=O,Potency,[1],inactive
same,Potency,[2],inactive
same,Potency,[4],inactive
CCN(CC)CCOC(=O)C(c1ccccc1)c1ccccc1,Potency,[1],inactive
same,Potency,[2],"inconclusive: 33.5 µM [cytotoxic, single point]"
same,Potency,[5],inactive
same,Potency,[4],inactive
CO[C@H]1C=CO[C@@]2(C)Oc3c(C)c(O)c4c(O)c(c5c(c4c3C2=O)=NC2(CCN(CC(C)C)CC2)N=5)NC(=O)/C(C)=C\C=C/[C@H](C)[C@H](O)[C@@H](C)[C@@H](O)[C@@H](C)[C@H](OC(C)=O)[C@@H]1C,Potency,[1],inconclusive: 67.1 µM [inhibitor]
same,Potency,[2],inactive
same,Potency,[5],"inconclusive: 75.2 µM [falling, single point]"
same,activation,[6],inconclusive: 9.01%
O=C(OCC(O)CO)c1ccccc1Nc1ccnc2cc(Cl)ccc12 (stereo not drawn),Potency,[1],inconclusive: 33.5 µM [single point]
same,Potency,[2],"inconclusive: 7.5 µM [cytotoxic, single point]"
same,Potency,[7],"inconclusive: 33.5 µM [cytotoxic, partial curve]"
same,Potency,[4],inactive
O=C(Nc1ccccc1)c1ccccc1O,Potency,[1],"inconclusive: 68.6 µM [inhibitor, single point]"
same,Potency,[2],"inconclusive: 27.3 µM [cytotoxic, single point]"
same,Potency,[3],"inconclusive: 6.86 µM [activator, partial curve]"
same,Potency,[4],"inconclusive: 68.6 µM [cytotoxic, single point]"
O=C(O)CCCCCCCCCC(=O)O,Potency,[1],inactive
same,Potency,[8],inactive
Cc1cccc(C(=O)O)c1[N+](=O)[O-],Potency,[1],inactive
same,Potency,[5],inactive
O[Si](c1ccccc1)(c1ccccc1)c1ccccc1,Potency,[1],"inconclusive: 34.4 µM [rising, partial curve]"
same,Potency,[7],"inconclusive: 61.1 µM [cytotoxic, partial curve, poor fit]"
CO[C@@H]1[C@@H](OC)[C@H](C)[C@@](O)(CC(=O)O)O[C@H]1[C@H](C)[C@H]1O[C@@]2(CC[C@@](C)([C@H]3CC[C@@](C)([C@@H]4O[C@@H]([C@H]5O[C@](C)(O)[C@H](C)C[C@@H]5C)C[C@@H]4OC4C[C@H](OC)[C@@H](OC)[C@H](C)O4)O3)O2)C[C@H](O)[C@H]1C (stereo partly drawn),Potency,[1],active: 11.9 µM
same,Potency,[7],active: 2.66 µM
same,Potency,[5],active: 18.8 µM
same,Potency,[4],active: 2.37 µM
same,Potency,[6],"inconclusive: 3.76 µM [falling, partial curve, poor fit]"
CC(C)C1CCC(C(=O)N[C@H](Cc2ccccc2)C(=O)O)CC1 (stereo partly drawn),Potency,[1],inactive
same,Potency,[8],inactive
CC1=CC(=O)CCC1,Potency,[1],inactive
same,Potency,[5],inactive
CCCC(=O)O[C@]1(C(=O)CC)CC[C@H]2[C@@H]3CCC4=CC(=O)CC[C@]4(C)[C@H]3[C@@H](O)C[C@@]21C,"activity, negative = inhibition",[1],inconclusive: -25.6% [at 42.5 µM]
same,Potency,[2],"inconclusive: 33.5 µM [cytotoxic, single point]"
same,Potency,[6],active: 0.0075 µM
COCc1c(C(C)C)nc(C(C)C)c(/C=C/[C@@H](O)C[C@@H](O)CC(=O)O)c1-c1ccc(F)cc1,Potency,[1],"inconclusive: 13.3 µM [fluorescent, partial curve] and inconclusive: 42.8 µM [fluorescent, partial curve, poor fit]"
same,Potency,[7],"inconclusive: 298 nM [cytotoxic, partial curve] and inconclusive: 107 nM [cytotoxic, full curve]"
Cc1nc(N)nc(N)c1-c1ccc(Cl)c(Cl)c1,Potency,[1],"inconclusive: 16.8 µM [inhibitor, partial curve]"
same,Potency,[7],"inconclusive: 2.11 µM [cytotoxic, full curve]"
O=c1[nH]c(=O)n([C@H]2C[C@H](O)[C@@H](CO)O2)cc1F,"activity, negative = inhibition",[1],inconclusive: -26.2% [at 42.5 µM]
same,Potency,[7],"inconclusive: 0.211 µM [cytotoxic, full curve]"
O=C1CCCCCN1SSN1CCCCCC1=O,"activity, negative = inhibition",[1],inconclusive: -18%
same,cAMP activity change,[8],inconclusive: 15.4%
Nc1ccc(NCCO)c([N+](=O)[O-])c1,Potency,[1],inactive
same,Potency,[8],inconclusive: 16.3 µM
same,Potency,[5],"inconclusive: 27.3 µM [falling, partial curve]"
same,Potency,[4],active: 30.6 µM
